The values that follow come from ChEMBL document CHEMBL4888484, “Replenishing the malaria drug discovery pipeline: Screening and hit evaluation of the MMV Hit Generation Library 1 (HGL1) against asexual blood stage Plasmodium falciparum ,using a nano luciferase reporter read-out” (2022).

The % Inhibition is the relative decrease from the control value, in per cent.

Screen size: about 150,000 compounds; about 540 (0.36%) showed an effect of 50% or more. The list shows a part of the results.

The test system of the test is Plasmodium falciparum. As to the kind of experiment: Primary screen in NF54 nanoGlo assay, in single point, at 2uM, 72h; a lower Z score goes with more inhibition. The test is classed as functional, Erythrocyte. Particulars: timepoint 72 hour.
In the case of `CCCN(CC1CC1)c1nnc([C@H]2CCCO2)n1Cc1cccs1`, the “% Inhibition” value is reported as -5% and the Z score was determined as 1.04.
Regarding `Cc1ccc2c(c1)N(Cc1ccccc1F)N=C(C(=O)N1CCCCCC1)S2(=O)=O`, the “% Inhibition” value is -7% and the Z score is listed as 0.83.
In the same order, the values of `Cc1nc2cc(C(=O)OCC(=O)N3CCC(Cc4ccccc4)CC3)ccc2n1-c1ccccc1` are 1% and -0.14.
The like results for `O=C(Nc1ccccc1N1C(=O)c2ccccc2C1=O)c1ccco1` were, in that order, 34% and -3.8.
The like results for `CC(=O)Nc1ccc(S(=O)(=O)Nc2cccn3ncnc23)cc1` were, in that order, -7% and 0.79.
Regarding `CCCn1ccnc1CN(Cc1nccs1)C1CC1`, the “% Inhibition” value was 7% and the Z score is on record as -0.68.
Turning to `c1cncc(-c2nc3c(c(NCc4ccc5c(c4)OCO5)n2)CNC3)c1`, the “% Inhibition” value is listed as 2% and the Z score is -0.39.
In the same order, the values of `CC(C)n1nnnc1CN1CC[C@H](c2ccccc2)C1` are 10% and -1.17.
As for `Fc1cncc(Br)c1CNC1CCCC1`, the “% Inhibition” value is reported as 15% and the Z score is given as -1.91.
Consider `c1ccc(OCCNCC2CCCCC2)nc1`, for which the “% Inhibition” value is -1% and the Z score is given as 0.15.
Take `CC[C@@H](c1cccnc1)N(C)CC(=O)Nc1cn(C)nc1C`: the “% Inhibition” value is given as -10% and the Z score was 1.83.
For the compound `CCc1oc2c(NC(=O)N3CCOC[C@@H](CO)C3)cc(Cl)cc2c1C`, the “% Inhibition” value was determined as 0% and the Z score is on record as -0.06.
In the same order, the values of `C[C@@H](C(=O)NC(C)(C)C)N1CCCCC1` are 3% and -0.3.
The like results for `CC(C)(C)OC(=O)N[C@H]1CCN(C(=O)Cc2ccccc2O)C1` were, in that order, -9% and 0.88.
In the same order, the values of `Cc1nc2c(OCc3ccn(C4CCCC4)n3)cccc2o1` are -14% and 1.46.
For the compound `NC(=O)c1cccnc1N[C@H]1CC(=O)N(CC2CCCCC2)C1`, the “% Inhibition” value was -7% and the Z score was 1.43.
The like results for `CCn1ncc(C2=NO[C@H](C(=O)Nc3cccnc3)C2)c1C` were, in that order, -12% and 2.21.
Regarding `O=C1CCC(N2CCCC3(CCCN(Cc4ccccc4)C3)C2)CCN1Cc1ccc(F)cc1F` (stereo not drawn), the “% Inhibition” value worked out at 5% and the Z score is -0.54.
The like results for `C=Cc1ccc(C(=O)N2C[C@@H]3CC[C@H]2CN(C)C3)cc1` were, in that order, -3% and 0.54.
The like results for `O=S(=O)(c1ccc2ccccc2c1F)N1CC(CO)C1` were, in that order, 36% and -4.07.
Regarding `CN1Cc2cc(OCC3(O)CCOCC3)ccc2C1=O`, the “% Inhibition” value amounted to 38% and the Z score is on record as -5.54.
In the same order, the values of `CCc1n[nH]c(NC(=O)C(C)(C)C)c1Br` are -1% and 0.11.
`CCCCc1nc(C)cc(NC[C@H]2CCN(S(=O)(=O)CCCC)C2)n1`: the “% Inhibition” value is 7% and the Z score was -0.84.
In the same order, the values of `COc1cc(Br)cc2c1O[C@]1(C)C[C@@H]2NC(=O)N1c1ccc(C)cc1` are -17% and 2.67.
